# Measurements reported in the supplement of paper PMC8728848.
# The list shows a part of the results.
# B1: rMpL (Macrolepiota procera) (protein)
# chain: MSTQVSSGRTYKITNVIAGTVIDLSGEDNKSIIGYPYHSGKNQQWTFNWTGKAWTLRSASSGSYLGIEGTPAGGTRLVAVNDPFEWHIWRDEANENAFRIFVPFTNYNLDLSGYGDTTPGTPVQLWWTWEGLHQTWTIDRP
# What was measured:
# Test in all cases: glycan array binding signal (z-score within array); higher = stronger binding
# Settings in all cases: glycan notation: IUPAC condensed, linker removed
# GalNAc6S(b1-4)GlcNAc = target: GalNAc6S(b1-4)GlcNAc
# How it was run: (§1)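 Glycan array data were curated from 3228 arrays in the Consortium for Functional Glycomics database and kept only where the protein sequence was available. Glycan names were converted to IUPAC-condensed notation, and columns mapping to the same glycan were averaged. The binding signal is a within-array Z-score, averaged across arrays of the same protein sequence at different concentrations or buffers and across linkers. Negative Z-scores can be read as non-binding.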
# Glc(a1-4)Glc = target: Glc(a1-4)Glc
# How it was run: as §1
# [1] = target: Glc(a1-4)Glc(a1-4)Glc(a1-4)Glc
# How it was run: as §1
# Glc(a1-6)Glc(a1-6)Glc = target: Glc(a1-6)Glc(a1-6)Glc
# How it was run: as §1
# [2] = target: Glc(a1-6)Glc(a1-6)Glc(a1-6)Glc
# How it was run: as §1
# Glc(b1-4)Glc = target: Glc(b1-4)Glc
# How it was run: as §1
# Glc(b1-6)Glc = target: Glc(b1-6)Glc
# How it was run: as §1
# GlcA(b1-3)Gal = target: GlcA(b1-3)Gal
# How it was run: as §1
# GlcA(b1-3)GlcNAc = target: GlcA(b1-3)GlcNAc
# How it was run: as §1
# GlcA(b1-6)Gal = target: GlcA(b1-6)Gal
# How it was run: as §1
# [3] = target: GlcA3S(b1-3)Gal(b1-4)GlcNAc(b1-2)Man
# How it was run: as §1
# [4] = target: GlcA3S(b1-3)Gal(b1-4)GlcNAc(b1-3)Gal(b1-4)Glc
# How it was run: as §1
# [5] = target: GlcNAc(a1-3)Gal(b1-4)GlcNAc
# How it was run: as §1
# [6] = target: GlcNAc(a1-4)Gal(b1-3)GlcNAc
# How it was run: as §1
# [7] = target: GlcNAc(a1-4)Gal(b1-4)GalNAc
# How it was run: as §1
# [8] = target: GlcNAc(a1-4)Gal(b1-4)GlcNAc
# How it was run: as §1
# [9] = target: GlcNAc(a1-4)Gal(b1-4)GlcNAc(b1-3)Gal(b1-4)Glc
# How it was run: as §1
# [10] = target: GlcNAc(a1-4)Gal(b1-4)GlcNAc(b1-3)Gal(b1-4)GlcNAc
# How it was run: as §1
# [11] = target: GlcNAc(a1-4)Gal(b1-4)GlcNAc(b1-3)Gal(b1-4)GlcNAc(b1-3)Gal(b1-4)GlcNAc
# How it was run: as §1
# [12] = target: GlcNAc(a1-4)Gal(b1-4)GlcNAc(b1-3)Gal(b1-4)[Fuc(a1-3)]GlcNAc(b1-3)Gal(b1-4)[Fuc(a1-3)]GlcNAc
# How it was run: as §1
# [13] = target: GlcNAc(a1-6)Gal(b1-4)GlcNAc
# How it was run: as §1
# [14] = target: GlcNAc(b1-2)Gal(b1-3)GalNAc
# How it was run: as §1
# [15] = target: GlcNAc(b1-2)Man(a1-3)[GlcNAc(b1-2)Man(a1-6)]Man(b1-4)GlcNAc(b1-4)GlcNAc
# How it was run: as §1
# [16] = target: GlcNAc(b1-2)Man(a1-3)[GlcNAc(b1-2)Man(a1-6)]Man(b1-4)GlcNAc(b1-4)[Fuc(a1-6)]GlcNAc
# How it was run: as §1
# [17] = target: GlcNAc(b1-2)Man(a1-3)[GlcNAc(b1-4)][GlcNAc(b1-2)Man(a1-6)]Man(b1-4)GlcNAc(b1-4)GlcNAc
# How it was run: as §1
# [18] = target: GlcNAc(b1-2)Man(a1-3)[GlcNAc(b1-4)][GlcNAc(b1-2)Man(a1-6)]Man(b1-4)GlcNAc(b1-4)[Fuc(a1-6)]GlcNAc
# How it was run: as §1
# [19] = target: GlcNAc(b1-2)[GlcNAc(b1-4)]Man(a1-3)[GlcNAc(b1-2)Man(a1-6)]Man(b1-4)GlcNAc(b1-4)GlcNAc
# How it was run: as §1
# [20] = target: GlcNAc(b1-2)[GlcNAc(b1-4)]Man(a1-3)[GlcNAc(b1-4)][GlcNAc(b1-2)Man(a1-6)]Man(b1-4)GlcNAc(b1-4)GlcNAc
# How it was run: as §1
# [21] = target: GlcNAc(b1-2)[GlcNAc(b1-4)]Man(a1-3)[GlcNAc(b1-4)][GlcNAc(b1-2)[GlcNAc(b1-6)]Man(a1-6)]Man(b1-4)GlcNAc(b1-4)GlcNAc
# How it was run: as §1
# [22] = target: GlcNAc(b1-2)[GlcNAc(b1-4)]Man(a1-3)[GlcNAc(b1-4)][GlcNAc(b1-2)[GlcNAc(b1-6)]Man(a1-6)]Man(b1-4)GlcNAc(b1-4)[Fuc(a1-6)]GlcNAc
# How it was run: as §1
# [23] = target: GlcNAc(b1-2)[GlcNAc(b1-6)]Man(a1-6)[GlcNAc(b1-2)Man(a1-3)]Man(b1-4)GlcNAc(b1-4)GlcNAc
# How it was run: as §1
# [24] = target: GlcNAc(b1-2)[GlcNAc(b1-6)]Man(a1-6)[GlcNAc(b1-2)Man(a1-3)]Man(b1-4)GlcNAc(b1-4)[Fuc(a1-6)]GlcNAc
# How it was run: as §1
# [25] = target: GlcNAc(b1-2)[GlcNAc(b1-6)]Man(a1-6)[GlcNAc(b1-4)][GlcNAc(b1-2)Man(a1-3)]Man(b1-4)GlcNAc(b1-4)GlcNAc
# How it was run: as §1
# GlcNAc(b1-3)Fuc = target: GlcNAc(b1-3)Fuc
# How it was run: as §1
# GlcNAc(b1-3)Gal = target: GlcNAc(b1-3)Gal
# How it was run: as §1
# [26] = target: GlcNAc(b1-3)Gal(b1-3)GalNAc
# How it was run: as §1
# GlcNAc(b1-3)Gal(b1-4)Glc = target: GlcNAc(b1-3)Gal(b1-4)Glc
# How it was run: as §1
# [27] = target: GlcNAc(b1-3)Gal(b1-4)GlcNAc
# How it was run: as §1
# [28] = target: GlcNAc(b1-3)Gal(b1-4)GlcNAc(b1-2)Man(a1-3)[GlcNAc(b1-3)Gal(b1-4)GlcNAc(b1-2)Man(a1-6)]Man(b1-4)GlcNAc(b1-4)GlcNAc
# How it was run: as §1
# [29] = target: GlcNAc(b1-3)Gal(b1-4)GlcNAc(b1-2)Man(a1-3)[GlcNAc(b1-3)Gal(b1-4)GlcNAc(b1-2)Man(a1-6)]Man(b1-4)GlcNAc(b1-4)[Fuc(a1-6)]GlcNAc
# How it was run: as §1
# [30] = target: GlcNAc(b1-3)Gal(b1-4)GlcNAc(b1-2)[GlcNAc(b1-3)Gal(b1-4)GlcNAc(b1-6)]Man(a1-6)[GlcNAc(b1-3)Gal(b1-4)GlcNAc(b1-2)Man(a1-3)]Man(b1-4)GlcNAc(b1-4)GlcNAc
# How it was run: as §1
# [31] = target: GlcNAc(b1-3)Gal(b1-4)GlcNAc(b1-3)Gal(b1-4)GlcNAc
# How it was run: as §1
# [32] = target: GlcNAc(b1-3)Gal(b1-4)GlcNAc(b1-3)Gal(b1-4)GlcNAc(b1-2)Man(a1-3)[GlcNAc(b1-3)Gal(b1-4)GlcNAc(b1-3)Gal(b1-4)GlcNAc(b1-2)Man(a1-6)]Man(b1-4)GlcNAc(b1-4)GlcNAc
# How it was run: as §1
# [33] = target: GlcNAc(b1-3)Gal(b1-4)GlcNAc(b1-3)Gal(b1-4)GlcNAc(b1-2)Man(a1-3)[GlcNAc(b1-3)Gal(b1-4)GlcNAc(b1-3)Gal(b1-4)GlcNAc(b1-2)Man(a1-6)]Man(b1-4)GlcNAc(b1-4)[Fuc(a1-6)]GlcNAc
# How it was run: as §1
# [34] = target: GlcNAc(b1-3)Gal(b1-4)GlcNAc(b1-3)Gal(b1-4)GlcNAc(b1-2)[GlcNAc(b1-3)Gal(b1-4)GlcNAc(b1-3)Gal(b1-4)GlcNAc(b1-6)]Man(a1-6)[GlcNAc(b1-3)Gal(b1-4)GlcNAc(b1-3)Gal(b1-4)GlcNAc(b1-2)Man(a1-3)]Man(b1-4)GlcNAc(b1-4)[Fuc(a1-6)]GlcNAc
# How it was run: as §1
binder,measurement,setting,value
B1,glycan array binding signal (z-score),GalNAc6S(b1-4)GlcNAc,-0.256
same,glycan array binding signal (z-score),Glc(a1-4)Glc,-0.289
same,glycan array binding signal (z-score),[1],-0.2
same,glycan array binding signal (z-score),Glc(a1-6)Glc(a1-6)Glc,-0.323
same,glycan array binding signal (z-score),[2],-0.31
same,glycan array binding signal (z-score),Glc(b1-4)Glc,-0.295
same,glycan array binding signal (z-score),Glc(b1-6)Glc,-0.305
same,glycan array binding signal (z-score),GlcA(b1-3)Gal,-0.315
same,glycan array binding signal (z-score),GlcA(b1-3)GlcNAc,-0.129
same,glycan array binding signal (z-score),GlcA(b1-6)Gal,1.71
same,glycan array binding signal (z-score),[3],-0.3
same,glycan array binding signal (z-score),[4],-0.416
same,glycan array binding signal (z-score),[5],-0.394
same,glycan array binding signal (z-score),[6],-0.249
same,glycan array binding signal (z-score),[7],-0.293
same,glycan array binding signal (z-score),[8],-0.335
same,glycan array binding signal (z-score),[9],-0.434
same,glycan array binding signal (z-score),[10],-0.349
same,glycan array binding signal (z-score),[11],-0.353
same,glycan array binding signal (z-score),[12],-0.16
same,glycan array binding signal (z-score),[13],2.83
same,glycan array binding signal (z-score),[14],-0.29
same,glycan array binding signal (z-score),[15],-0.322
same,glycan array binding signal (z-score),[16],-0.192
same,glycan array binding signal (z-score),[17],-0.341
same,glycan array binding signal (z-score),[18],-0.334
same,glycan array binding signal (z-score),[19],-0.251
same,glycan array binding signal (z-score),[20],-0.353
same,glycan array binding signal (z-score),[21],-0.358
same,glycan array binding signal (z-score),[22],-0.401
same,glycan array binding signal (z-score),[23],-0.265
same,glycan array binding signal (z-score),[24],-0.033
same,glycan array binding signal (z-score),[25],-0.345
same,glycan array binding signal (z-score),GlcNAc(b1-3)Fuc,-0.309
same,glycan array binding signal (z-score),GlcNAc(b1-3)Gal,-0.345
same,glycan array binding signal (z-score),[26],-0.302
same,glycan array binding signal (z-score),GlcNAc(b1-3)Gal(b1-4)Glc,-0.288
same,glycan array binding signal (z-score),[27],-0.335
same,glycan array binding signal (z-score),[28],-0.243
same,glycan array binding signal (z-score),[29],-0.295
same,glycan array binding signal (z-score),[30],-0.287
same,glycan array binding signal (z-score),[31],-0.322
same,glycan array binding signal (z-score),[32],0.133
same,glycan array binding signal (z-score),[33],-0.081
same,glycan array binding signal (z-score),[34],-0.234
